Measured values as given in the supplement of paper PMC3334620.
In all, about 33,000 sequences were measured (“E-score (-0.5 to 0.5)”: median about -0.021, highest 2% from about 0.32 on). Some of the results follow.

molecular target: T1, Zap1 (UniProt P47043); assay: PBM E-score (8-mer binding enrichment) (E-score (-0.5 to 0.5)); higher = stronger / more preferred TF binding; most listed sequences are background and not binding sites; conditions: protein concentration: 200 nM; construct: GST-full length
T1 sequence: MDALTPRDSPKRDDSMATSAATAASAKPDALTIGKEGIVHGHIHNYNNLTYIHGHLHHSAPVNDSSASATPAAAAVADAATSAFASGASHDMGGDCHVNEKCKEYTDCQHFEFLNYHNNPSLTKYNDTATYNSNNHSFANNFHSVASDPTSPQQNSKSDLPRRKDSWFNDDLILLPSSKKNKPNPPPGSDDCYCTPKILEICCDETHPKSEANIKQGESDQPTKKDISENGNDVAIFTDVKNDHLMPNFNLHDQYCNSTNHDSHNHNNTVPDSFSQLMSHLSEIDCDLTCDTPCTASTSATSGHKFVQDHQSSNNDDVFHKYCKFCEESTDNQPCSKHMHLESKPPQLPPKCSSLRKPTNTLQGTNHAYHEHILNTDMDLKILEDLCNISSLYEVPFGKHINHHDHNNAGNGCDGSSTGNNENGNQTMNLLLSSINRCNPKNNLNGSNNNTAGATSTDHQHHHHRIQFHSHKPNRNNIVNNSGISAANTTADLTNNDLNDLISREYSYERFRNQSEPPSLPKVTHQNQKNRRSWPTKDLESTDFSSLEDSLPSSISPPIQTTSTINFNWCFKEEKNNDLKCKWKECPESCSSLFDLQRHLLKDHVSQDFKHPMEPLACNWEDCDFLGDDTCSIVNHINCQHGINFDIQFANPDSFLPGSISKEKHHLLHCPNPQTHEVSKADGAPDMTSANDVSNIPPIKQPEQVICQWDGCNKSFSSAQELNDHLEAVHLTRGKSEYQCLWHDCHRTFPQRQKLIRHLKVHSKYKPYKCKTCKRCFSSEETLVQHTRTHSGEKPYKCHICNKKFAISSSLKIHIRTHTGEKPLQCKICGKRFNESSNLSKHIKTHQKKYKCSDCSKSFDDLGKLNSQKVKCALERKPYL
In short: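 Detection of bound protein used fluorescent anti-GST, with scans normalised by masliner. The proteins were GST-tagged yeast transcription factors applied at about 100-200 nM to universal all-10-mer Agilent arrays made double-stranded by primer extension. Each ungapped eight-base word, pooled with its reverse complement, was scored with an E-score from the Universal PBM Analysis Suite.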

| Sequence | PBM E-score |
| --- | --- |
| CCACGACC | 0.314 |
| GCTACATA | -0.224 |
| AGCTACTC | -0.066 |
| AGCTCGGC | -0.189 |
| CACATTAC | -0.0748 |
| AAAATGGG | 0.0893 |
| AGCCACTA | -0.0262 |
| CGGTCATC | 0.131 |
| GAGAAGGA | -0.232 |
| CACTATAG | 0.0502 |
| CTCTTCTA | -0.0672 |
| ACGTGCGG | -0.0512 |
| ATATCCTA | -0.0164 |
| CCCCACGG | 0.178 |
| GGATTTAC | -0.0955 |
| GAAGGTAA | 0.319 |
| CTCAGATC | -0.00776 |
| GAATCTCA | -0.167 |
| ACGCCGTC | -0.299 |
| ACTAATGC | -0.0246 |
| AAGAACTG | -0.106 |
| AGCCTGAT | -0.177 |
| GGCGTCGA | 0.0444 |

| Sequence | PBM E-score |
| --- | --- |
| ATCGTCCA | -0.261 |
| ATACGCAC | -0.0166 |
| TGTGGGAA | -0.0742 |
| CCGACCTC | -0.0902 |
| AATCATTG | 0.0609 |
| CTCAGACA | -0.0287 |
| AAGCTCCC | -0.172 |
| GGTGATCA | 0.213 |
| CAGGCTCA | -0.29 |
| TACTGAAA | 0.173 |
| ACGGAGTA | 0.119 |
| AGACATTG | -0.172 |
| AGCGCCGG | -0.122 |
| AACCAGTT | 0.291 |
| GGCTAAGA | -0.0566 |
| CGTACACC | -0.00147 |
| GCCCCGAC | 0.0325 |
| AAAGGGCT | 0.00434 |
| ACGCGCGT | 0.146 |
| AGCCTCGG | -0.112 |
| TATTATAA | 0.258 |
| ACGTACAC | -0.0137 |
| AGATGTCA | -0.11 |

| Sequence | PBM E-score |
| --- | --- |
| CCAAAACG | 0.163 |
| TACACCAA | 0.297 |
| AAGAGCCC | -0.209 |
| CCACAGGA | -0.0546 |
| TCGCAGAA | -0.0445 |
| AGGCCACT | -0.13 |
| AATAGTCT | 0.00568 |
| GCAGTTGA | 0.0156 |
| CCCCAGCA | 0.133 |
| AACTGCCC | -0.167 |
| TACCAAGA | 0.218 |
| ATGTCGGC | -0.135 |
| ACAGTTTC | 0.0648 |
| CTGGCGTC | -0.109 |
| CACCCGAC | 0.137 |
| ATTCCCTA | 0.0426 |
| CCTTTTCA | 0.17 |
| AAGCGCCA | -0.308 |
| AGTCCAAA | -0.0618 |
| ACTTCAAT | 0.101 |
| ATTGTTGC | 0.1 |
